Data from the supplement of paper PMC3334620.
The full ranking holds about 33,000 sequences; the median of “E-score (-0.5 to 0.5)” is about -0.013, and the highest 2% start at about 0.3. Some of the results follow.

molecular target: T1, Msn1 (UniProt P22148); assay: PBM E-score (8-mer binding enrichment) (E-score (-0.5 to 0.5)); higher = stronger / more preferred TF binding; most listed sequences are background and not binding sites; conditions: protein concentration: 200 nM; construct: GST-full length
T1 sequence: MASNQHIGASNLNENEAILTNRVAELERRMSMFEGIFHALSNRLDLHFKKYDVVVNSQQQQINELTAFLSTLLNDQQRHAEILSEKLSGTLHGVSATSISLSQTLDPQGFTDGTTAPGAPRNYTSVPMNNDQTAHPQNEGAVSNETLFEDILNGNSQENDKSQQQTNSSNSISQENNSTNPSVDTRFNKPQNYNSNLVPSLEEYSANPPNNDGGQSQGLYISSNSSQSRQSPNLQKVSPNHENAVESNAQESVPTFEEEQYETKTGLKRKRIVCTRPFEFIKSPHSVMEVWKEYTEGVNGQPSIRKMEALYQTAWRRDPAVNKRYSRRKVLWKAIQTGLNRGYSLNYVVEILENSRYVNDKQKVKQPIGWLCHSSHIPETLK
Method in brief: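 Universal all-10-mer Agilent arrays, fresh or stripped once, were converted to double-stranded form by primer extension. GST-tagged yeast transcription factors from PURExpress in vitro transcription/translation, full-length or DNA-binding domain only, were applied at about 100-200 nM and detected with fluorescent anti-GST. After masliner normalisation, the Universal PBM Analysis Suite scored each ungapped eight-base word together with its reverse complement by E-score.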

Sequence	PBM E-score
GACGTATA	-0.06
ACGTCAGT	-0.104
CACGCCAA	-0.0546
CACGTCGG	-0.0401
CAATCGGA	0.174
CCTGTACG	-0.0119
AGTGTCGG	0.202
CACCCCTG	-0.325
ACCGTAGG	-0.25
AATCGTCA	0.0854
GCCCGCGC	0.0392
CAGGCAGG	-0.171
AATCGTGA	-0.0293
CGCGTTAA	0.126
CGGCGACG	0.0965
CCTATCCG	-0.185
TACATACA	0.207
GATGATAC	-0.0724
ATAAACGG	0.15
AGAAAAGG	0.0226
GCTAATAA	-0.0698
GGCGAGCA	-0.0323
GTCTAAAA	0.156
CCGGTGAG	-0.156
CGCGGTTA	0.0222

Sequence	PBM E-score
ACGTTTTG	0.00464
AAAGGTGA	0.0494
GGATTGCA	-0.0706
GGGAGATA	-0.196
AGTATGAT	0.101
TCATCGAA	-0.0107
CCGATCGC	0.0345
CGAACACA	0.0753
AGAGAATC	-0.0743
CGCTAAGA	-0.118
ATGCATAG	0.0299
CCGTGTAG	-0.109
GCGTAAGC	-0.337
CAGCTATA	-0.0985
CGCGTGCA	-0.18
CGAATCAA	0.175
CTCAGTCC	-0.0157
CAACCATA	-0.104
GAATTCCC	0.0167
ATACTAAG	0.103
CCTTGCCA	0.0681
ATGCTGCC	-0.115
CCGAGAAA	0.219
ACTAGCAG	0.00056
CTGTAGTC	-0.112

Sequence	PBM E-score
AGCTCTAC	-0.104
GGTAATAC	0.0852
ATAAGTTA	0.024
CCAGCAGC	-0.167
AGGGTCAA	-0.00408
ACCGATAA	0.157
AGCCCTTA	-0.105
GTCGTAAC	-0.0291
GAAGCGCA	-0.0292
GCCTCTAC	-0.132
AGATTATC	-0.0624
AGTCCACG	-0.059
ATTACCGA	0.138
CACATTCG	0.0622
ATCGGTGA	0.107
AGCGAAGG	-0.12
CCGTTATC	0.129
CTCCCTAA	-0.229
AATGCTCA	-0.0432
CCCTAGCG	-0.35
ACAATCAA	0.0284
GACGGAGC	-0.156
AACGACAA	0.262
AAATGATG	0.226
ATAGATTA	0.153

Sequence	PBM E-score
GCCCGAAA	0.186
CCGCTTTA	-0.0465
GGGTGTTA	0.0537
AGACGCTG	-0.278
GCCGTCCA	-0.13
CATCGCAG	-0.00146
CGCGAACA	0.113
CTTTCCGA	0.122
ATGACCGC	-0.19
ACTGATCA	0.0523
AATTGCTC	-0.044
AGGTATGA	0.0198
ATGCAACG	-0.0419
ACAACGTC	-0.114
GGCTTCCA	-0.289
ATGATAAC	0.155
GATGAGCC	-0.173
GACGGTAC	0.0456
CAGATCTA	0.0932
ATCACATA	0.0742
CACCATGA	-0.0369
CACGGGTC	-0.076
CGCCCCTC	-0.323
GGATTCCA	0.183
CTTACATC	0.0126

Sequence	PBM E-score
GAGACGGA	-0.0328
TACCGTGA	-0.128
ATAGAGCG	-0.0637
CTTGAGTC	-0.0248
ATGGTGCA	-0.12
ACTGTCAA	0.0974
CTGACTTA	0.069
ACTTCTCT	-0.0383
AATTGCCC	0.0445
AGCAGGCT	-0.236
ATCGCCCG	-0.112
ACCGGTCA	-0.0314
CCAGAACG	0.151
GAGTCCAA	-0.0901
GTACGCAC	-0.121
CCATCGTC	-0.186
CACTGGTA	-0.102
ATCACTAG	-0.0267
GGTACACC	-0.204
AATAGAAT	0.0217
CAGAAAAC	0.0413
GTCAACAC	0.00323
ACGGCTCG	0.0879
AATGTACT	0.364
CTAGTCCC	0.143

Sequence	PBM E-score
TGACGGCA	-0.0952
CAACAGAC	0.171
CACCGGTA	0.0943
TATTCGAA	-0.00052
CAGCTGTA	-0.0452
AGGTTAGC	-0.205
AGAACACA	0.0398
CGAACATA	0.128
CTATGTGA	0.0225
GGATCCCA	0.0447
TAGACCAA	-0.023
GCACCTAC	-0.194
CAGTCAAG	0.0323
AGCGGCTA	-0.0179
ATTGCGCC	0.0139
AGACATAG	0.32
TCAATGAA	0.0871
ACTTGGAC	0.291
GGGGGGAC	-0.218
CCGCTGAG	0.00458
ACCTGCCG	-0.116
ACCTTCTC	-0.183
CAGTGATG	0.0171
AAAAAATC	0.105
GTCAGGCA	-0.0756

Sequence	PBM E-score
CGGATACG	0.0284
ATCTACGG	-0.103
ACAAAGAG	-0.00747
CAGTCGGC	-0.0676
GTACTTGA	0.186
CCTCGTAG	-0.154
CGCGGCAA	-0.0728
ATTTCATA	0.103
ACTACATG	0.142
CGTTGCTA	-0.0977
AGTTCGTG	0.0266
AGCTATCG	-0.0821
CTTAACGA	0.159
CGTGTTGA	0.022
CCAGCCAA	-0.027
AGCTCACT	-0.217
ACTACTAC	0.0357
ATCGTCTC	0.0417
TGCATGCA	0.0527
AGCTCGTA	-0.00733
CGGGTGTA	-0.0647
TACAGCGA	-0.0582
